Publication PMC4336329 (PLoS ONE, 2015)
The whole screen tested about 310,000 compounds, of which about 2,200 (0.71%) showed an effect of 50% or more. Effects have a minus sign here. The list shows a part of the results.

biological target: human ether-à-go-go-related gene (hERG) potassium channel (human, UniProt Q12809); assay: primary screen, population patch clamp on CHO cells stably expressing hERG
Sequence (Q12809 whole entry, looked up): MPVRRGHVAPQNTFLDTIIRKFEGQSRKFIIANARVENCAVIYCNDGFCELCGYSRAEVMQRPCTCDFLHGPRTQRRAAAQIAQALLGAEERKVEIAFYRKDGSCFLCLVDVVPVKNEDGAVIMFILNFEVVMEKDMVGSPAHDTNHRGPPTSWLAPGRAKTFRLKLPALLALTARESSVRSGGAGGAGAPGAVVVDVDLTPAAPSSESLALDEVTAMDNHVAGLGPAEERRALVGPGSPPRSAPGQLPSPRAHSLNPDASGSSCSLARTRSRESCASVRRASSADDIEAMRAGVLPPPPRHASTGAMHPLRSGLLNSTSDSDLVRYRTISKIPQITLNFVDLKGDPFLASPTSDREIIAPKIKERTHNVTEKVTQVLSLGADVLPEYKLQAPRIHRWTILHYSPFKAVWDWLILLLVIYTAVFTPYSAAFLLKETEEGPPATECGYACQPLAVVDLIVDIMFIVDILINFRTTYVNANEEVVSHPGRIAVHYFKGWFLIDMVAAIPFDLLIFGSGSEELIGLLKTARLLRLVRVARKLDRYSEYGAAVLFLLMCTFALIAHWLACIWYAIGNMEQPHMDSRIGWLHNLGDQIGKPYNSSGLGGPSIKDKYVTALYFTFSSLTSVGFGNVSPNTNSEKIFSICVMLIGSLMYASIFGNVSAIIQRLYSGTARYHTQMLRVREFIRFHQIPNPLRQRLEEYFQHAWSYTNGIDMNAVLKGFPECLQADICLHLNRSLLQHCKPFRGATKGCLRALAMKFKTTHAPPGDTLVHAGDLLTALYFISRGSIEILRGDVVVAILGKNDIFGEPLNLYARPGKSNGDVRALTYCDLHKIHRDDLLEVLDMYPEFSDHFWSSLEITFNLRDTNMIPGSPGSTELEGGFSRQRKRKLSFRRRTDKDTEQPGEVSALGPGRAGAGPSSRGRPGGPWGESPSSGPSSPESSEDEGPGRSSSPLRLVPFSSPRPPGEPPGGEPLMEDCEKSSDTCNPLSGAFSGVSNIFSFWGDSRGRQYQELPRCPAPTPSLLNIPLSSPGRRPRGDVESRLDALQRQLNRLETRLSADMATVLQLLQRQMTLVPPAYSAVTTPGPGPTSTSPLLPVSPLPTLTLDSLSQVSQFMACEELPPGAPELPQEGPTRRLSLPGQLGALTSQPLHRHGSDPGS

Structure (SMILES) | hERG current change (%, negative = inhibition) at 1uM [%]
CCCCOC(=O)CSC(=S)N(C)Cc1cccs1 | 11.5
CCn1cc(CN2CCCC(C(=O)Nc3cccc(-c4cc5ccccc5[nH]4)c3)C2)cn1 (stereo not drawn) | 11.4
COc1ccc(N2CCN(C(=O)c3cccnc3SCc3cccc(Br)c3)CC2)cc1 | 4.84
O=[N+]([O-])c1ccccc1S(=O)(=O)NCCc1ccncc1 | 21.6
Cc1ccc(S(=O)(=O)n2nc(-c3ccc(Cl)cc3)nc2NCc2ccco2)cc1 | -0.4
O=[N+]([O-])c1ccc(Nc2ccc(Cl)cc2)nc1 | 5.04
O=c1cc(CSc2ccccn2)nc(N2CCN(c3ccccc3)CC2)[nH]1 | -18.8
O=C(COC(=O)CNC(=O)c1ccccc1F)Nc1ccc2[nH]c(=O)[nH]c2c1 | 14.6
CCc1c(C(=O)NN2C(=O)C3C4CCC(O4)C3C2=O)csc1C (stereo not drawn) | 15.4
COc1ccc(-c2csc(NC(=O)CSc3ccc(Br)cc3)n2)c(OC)c1 | 19.2
CCCOc1ccccc1C1CC(=O)Nc2cc3c(cc21)OCCO3 (stereo not drawn) | 11
CCn1c(Cc2ccc(OC)cc2)nnc1SCc1nc2ccccc2c(=O)[nH]1 | 10.3
COc1ccc(CC(=O)OCC(=O)N2CCN(S(=O)(=O)c3ccc(C)cc3C)CC2)cc1 | 5.83
Cc1cc2nc(NCCCO)n(CC(=O)c3cc(C(C)(C)C)c(O)c(C(C)(C)C)c3)c2cc1C | 7.22
O=C(O)c1ccc(Nc2nc(-c3cccnc3)cs2)cc1O | 6.41
COc1ccccc1-[n+]1c(C)cc(/C=C2\Sc3ccccc3N2C)cc1C.[I-] | -39.3
CCCCC(CCC(=O)O)(C(=O)OCC)c1csc(Nc2ccc(C)cc2)n1 (stereo not drawn) | 8.18
CCN(C(C)=O)c1cccc2ccccc12 | 7.75
COc1cc(CNc2ccc3[nH]c(=O)[nH]c3c2)ccc1OCc1ccccc1C | 12.8
CCOC(=O)C1CCN(c2ccc([N+](=O)[O-])c(C(C)=O)c2)CC1 | 6.2
COc1nc(-c2ccccc2)c2c(c1C#N)CC(C)(C)OC2 | 18.3
O=C(CSc1nc(O)cc(=O)n1-c1ccccc1)Nc1ccc(Br)cn1 | 5.75
CC(C)(C)Cc1nnc(NC(=O)Cc2ccc([N+](=O)[O-])cc2)s1 | -0.543
CC1=C(C(=O)OC(C)C)C(C)C(C(=O)OC(C)C)=C(C)N1 | -9.49
